Measurements reported in PMC12396302.
These are yes or no findings as the source states them, for the method shown. For some assays here: In cells and extracts the contact can be indirect. Some binding calls cover weakened binding; strength is not graded here. For some assays here: Where a sequence is shown, tags or fusion partners need not be part of it. Blank lines part the entries; values can stand above or below the molecule they belong to.

Chains of the proteins cited; added tags and fusions are not shown.
UniProt P67809: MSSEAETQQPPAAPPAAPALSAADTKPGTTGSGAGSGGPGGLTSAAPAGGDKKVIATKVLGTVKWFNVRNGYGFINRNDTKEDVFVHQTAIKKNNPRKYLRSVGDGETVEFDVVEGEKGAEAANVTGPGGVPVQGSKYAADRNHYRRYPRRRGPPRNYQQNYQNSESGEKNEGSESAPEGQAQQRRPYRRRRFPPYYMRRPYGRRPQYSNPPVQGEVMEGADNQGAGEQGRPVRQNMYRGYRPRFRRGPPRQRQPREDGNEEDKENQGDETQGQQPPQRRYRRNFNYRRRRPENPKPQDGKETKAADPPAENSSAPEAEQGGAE

Assays:
[1] = target: T1, GST-tagged Menin N-terminal fragment (1-210 aa) (UniProt O00255); test: pull-down; GST pull-down; GST-tagged Menin truncation mutants with HA-YBX1; blots probed with anti-GST and anti-HA
T1 sequence: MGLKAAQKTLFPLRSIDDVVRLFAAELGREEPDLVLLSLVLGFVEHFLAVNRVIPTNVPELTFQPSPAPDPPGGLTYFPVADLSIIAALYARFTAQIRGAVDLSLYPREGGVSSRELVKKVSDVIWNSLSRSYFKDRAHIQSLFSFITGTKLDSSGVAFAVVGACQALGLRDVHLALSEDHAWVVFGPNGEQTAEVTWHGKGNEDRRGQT

[2] = target: T2, GST-Menin (UniProt O00255); test: pull-down; GST pull-down in vitro; purified GST-Menin or GST alone with HIS-YBX1; blots probed with anti-HIS and anti-GST; both purified
T2 sequence: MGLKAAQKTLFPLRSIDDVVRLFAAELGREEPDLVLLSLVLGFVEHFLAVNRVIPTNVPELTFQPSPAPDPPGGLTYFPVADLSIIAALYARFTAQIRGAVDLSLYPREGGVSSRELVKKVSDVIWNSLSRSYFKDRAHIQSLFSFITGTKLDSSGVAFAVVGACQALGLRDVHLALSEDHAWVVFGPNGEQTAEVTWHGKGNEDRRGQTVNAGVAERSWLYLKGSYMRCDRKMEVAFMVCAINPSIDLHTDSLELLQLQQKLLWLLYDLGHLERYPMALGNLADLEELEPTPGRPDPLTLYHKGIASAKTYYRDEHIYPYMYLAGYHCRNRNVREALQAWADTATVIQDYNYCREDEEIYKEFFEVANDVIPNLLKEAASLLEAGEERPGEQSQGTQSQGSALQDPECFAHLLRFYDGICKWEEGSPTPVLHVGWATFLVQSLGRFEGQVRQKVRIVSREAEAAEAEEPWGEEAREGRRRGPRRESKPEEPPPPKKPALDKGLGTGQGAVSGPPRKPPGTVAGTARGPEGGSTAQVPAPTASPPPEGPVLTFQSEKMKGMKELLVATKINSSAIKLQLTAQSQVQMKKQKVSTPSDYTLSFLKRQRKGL

[3] = target: T3, FLAG-tagged Menin (UniProt O00255); test: co-IP; FLAG immunoprecipitation of nuclear extracts of PL45 and BxPC-3 cells; LaminB1 as input control
T3 sequence: T2 sequence

[4] = target: T4, Menin (human (endogenous in PL45 and Bx-PC3)) (UniProt O00255); test: co-IP; PL45 and Bx-PC3 cell lysates; beads pre-bound with 5 μg of Menin or YBX1 antibody, overnight at 4°C; IgG as negative control
T4 sequence: T2 sequence

[5] = target: Y-box binding protein 1 (YBX1) (human (endogenous in PL45 and Bx-PC3)) (UniProt P67809); test: as above

binding [1]: no binding
Molecule: HA-YBX1 (from UniProt P67809 1-324)

binding [2]: binds
Molecule: HIS-YBX1 (from UniProt P67809 1-324)

binding [3]: binds
binding [4]: binds
Molecule: Y-box binding protein 1 (YBX1) (from UniProt P67809 1-324)

binding [5]: binds
B1: Menin (protein, UniProt O00255 1-610)
chain: T2 sequence
